These results are taken from the GPR68 mutational scans of Howard et al. (2025).

The least precise scores are not listed. Not listed are two conditions whose scores span a narrow range. In variant names, del marks residues removed and ins residues inserted between the two positions. For some of these results: The data file names ogerin without a concentration.

The labels stand for the following.
B1: GPR68, Q15743 (parent)
chain: MGNITADNSSMSCTIDHTIHQTLAPVVYVTVLVVGFPANCLSLYFGYLQIKARNELGVYLCNLTVADLFYICSLPFWLQYVLQHDNWSHGDLSCQVCGILLYENIYISVGFLCCISVDRYLAVAHPFRFHQFRTLKAAVGVSVVIWAKELLTSIYFLMHEEVIEDENQHRVCFEHYPIQAWQRAINYYRFLVGFLFPICLLLASYQGILRAVRRSHGTQKSRKDQIQRLVLSTVVIFLACFLPYHVLLLVRSVWEASCDFAKGVFNAYHFSLLLTSFNCVADPVLYCFVSETTHRDLARLRGACLAFLTCSRTGRAREAYPLGAPEASGKSGAQGEEPELLTKLHPAFQTPNSPGSGGFPTGRLA

Variants of B1 are the subject of data set [1]. Briefly: cAMP reporter score (Enrich2 score, wild type = 0); higher = more signal; HEK293T, FACS bins.
Variants of B1 are the subject of data set [2]. Briefly: surface expression score (Enrich2 score, wild type = 0); higher = more signal; HEK293T, FACS bins.

On to Q131F, for which the cAMP reporter score is -1.1 in data set [1] (pH 5.5); -0.933 in data set [1] (pH 6); -1.07 in data set [1] (pH 6, modulator: ogerin); -1.51 in data set [1] (pH 6.5, modulator: ogerin). In addition, the surface expression score in data set [2] was -1.46.

As to Q131T, the cAMP reporter score in data set [1] (pH 5.5) is -0.163; in data set [1] (pH 6), -0.701; in data set [1] (pH 6.5, modulator: ogerin), -1.57. For the same variant, the surface expression score in data set [2] was 0.305.

In the case of Q131P, the cAMP reporter score in data set [1] (pH 5.5) is -0.531; in data set [1] (pH 6) it was -0.448; in data set [1] (pH 6, modulator: ogerin), -0.525; in data set [1] (pH 6.5, modulator: ogerin), -0.683. For the same variant, in data set [2], the surface expression score is -1.22.

Consider Q131R, for which the cAMP reporter score in data set [1] (pH 5.5) was -0.391; in data set [1] (pH 6), 0.108; in data set [1] (pH 6, modulator: ogerin) it was -0.423; in data set [1] (pH 6.5, modulator: ogerin), -0.701. For the same variant, the surface expression score in data set [2] was -0.342.

As to Q131S, the cAMP reporter score in data set [1] (pH 5.5) is 0.988; in data set [1] (pH 6), -0.405; in data set [1] (pH 6, modulator: ogerin), 1.03; in data set [1] (pH 6.5, modulator: ogerin) it was 0.415. Moreover, the surface expression score in data set [2] was 1.03.

Turning to Q131N, the cAMP reporter score in data set [1] (pH 5.5) worked out at 0.182; in data set [1] (pH 6, modulator: ogerin) it was 0.125; in data set [1] (pH 6.5, modulator: ogerin) it was 0.014. Besides, the surface expression score in data set [2] is 1.01.

For the variant Q131D, the cAMP reporter score in data set [1] (pH 5.5) is 1.27; in data set [1] (pH 6), -0.026; in data set [1] (pH 6, modulator: ogerin), 0.706; in data set [1] (pH 6.5, modulator: ogerin), -0.542.

On to Q131V, for which the cAMP reporter score in data set [1] (pH 5.5) is 0.798; in data set [1] (pH 6) it was 3.01; in data set [1] (pH 6, modulator: ogerin), 0.352; in data set [1] (pH 6.5, modulator: ogerin), 1.51.

For Q131K, the cAMP reporter score in data set [1] (pH 5.5) is -0.509; in data set [1] (pH 6), -0.082; in data set [1] (pH 6, modulator: ogerin), -0.529; in data set [1] (pH 6.5, modulator: ogerin), -0.29. The surface expression score in data set [2] worked out at 1.1.

For the variant Q131A, the cAMP reporter score in data set [1] (pH 5.5) was -0.704; in data set [1] (pH 6, modulator: ogerin) it was -2.07; in data set [1] (pH 6.5, modulator: ogerin), -0.489. The surface expression score in data set [2] was -2.17.

On to Q131M, for which the cAMP reporter score was 0.098 in data set [1] (pH 5.5); -0.028 in data set [1] (pH 6); -0.274 in data set [1] (pH 6, modulator: ogerin); -0.493 in data set [1] (pH 6.5, modulator: ogerin). The surface expression score in data set [2] is -0.149.

With Q131Y, the cAMP reporter score in data set [1] (pH 5.5) was 0.338; in data set [1] (pH 6), 0.11; in data set [1] (pH 6, modulator: ogerin), -0.794; in data set [1] (pH 6.5, modulator: ogerin) it was -0.685. Besides, the surface expression score in data set [2] is -0.474.

As for Q131I, the cAMP reporter score in data set [1] (pH 5.5) was 0.21; in data set [1] (pH 6, modulator: ogerin), -0.208; in data set [1] (pH 6.5, modulator: ogerin) it was -0.13.

For Q131E, the cAMP reporter score in data set [1] (pH 5.5) is -0.704; in data set [1] (pH 6), -0.002; in data set [1] (pH 6, modulator: ogerin), -0.501; in data set [1] (pH 6.5, modulator: ogerin), -0.774. Moreover, in data set [2], the surface expression score is -1.38.

L121del: the cAMP reporter score in data set [1] (pH 5.5) was -0.642; in data set [1] (pH 6), -2.06; in data set [1] (pH 6.5, modulator: ogerin), -1.11. Moreover, the surface expression score in data set [2] is -3.51.

On to F132_R133insGSG, for which the cAMP reporter score in data set [1] (pH 5.5) was -1.34; in data set [1] (pH 6, modulator: ogerin) it was -2.95; in data set [1] (pH 6.5, modulator: ogerin), -0.639. Besides, the surface expression score in data set [2] is -2.09.

For F129_Q131del, the cAMP reporter score is -2.15 in data set [1] (pH 5.5); -1.97 in data set [1] (pH 6); -2 in data set [1] (pH 6, modulator: ogerin); -1.37 in data set [1] (pH 6.5, modulator: ogerin). Besides, the surface expression score in data set [2] was -2.41.

As for F132_R133insG, the cAMP reporter score is -0.811 in data set [1] (pH 5.5); -1.27 in data set [1] (pH 6); -1.75 in data set [1] (pH 6, modulator: ogerin); -1.24 in data set [1] (pH 6.5, modulator: ogerin). Moreover, in data set [2], the surface expression score is -3.15.

Consider P126_F127insGSG, for which the cAMP reporter score is -1.23 in data set [1] (pH 5.5); -1.23 in data set [1] (pH 6); -1.64 in data set [1] (pH 6, modulator: ogerin); -1.12 in data set [1] (pH 6.5, modulator: ogerin). For the same variant, the surface expression score in data set [2] is -2.04.

Take F129_H130insGSG: the cAMP reporter score in data set [1] (pH 5.5) is -0.96; in data set [1] (pH 6, modulator: ogerin) it was -0.191; in data set [1] (pH 6.5, modulator: ogerin), -1.18. The surface expression score in data set [2] is -1.1.

Consider K136P, for which the cAMP reporter score in data set [1] (pH 5.5) was -0.809; in data set [1] (pH 6), -0.529; in data set [1] (pH 6, modulator: ogerin), -0.801; in data set [1] (pH 6.5, modulator: ogerin) it was -0.597. The surface expression score in data set [2] was -1.81.

With K136A, the cAMP reporter score in data set [1] (pH 5.5) was -0.099; in data set [1] (pH 6), -2.03; in data set [1] (pH 6, modulator: ogerin), -1.03; in data set [1] (pH 6.5, modulator: ogerin), -1.72. The surface expression score in data set [2] is -1.63.

As for K136D, the cAMP reporter score in data set [1] (pH 5.5) is -2.01; in data set [1] (pH 6), -0.579; in data set [1] (pH 6.5, modulator: ogerin), -1.46.

Take K136M: the cAMP reporter score in data set [1] (pH 5.5) is -0.661; in data set [1] (pH 6) it was 0.523; in data set [1] (pH 6, modulator: ogerin), -1.08; in data set [1] (pH 6.5, modulator: ogerin), -0.878. For the same variant, the surface expression score in data set [2] was -0.914.

Take K136N: the cAMP reporter score in data set [1] (pH 5.5) is -0.565; in data set [1] (pH 6) it was -0.642; in data set [1] (pH 6, modulator: ogerin), -0.563; in data set [1] (pH 6.5, modulator: ogerin), 0.147. In data set [2], the surface expression score was -2.69.

K136Y: the cAMP reporter score in data set [1] (pH 5.5) is -2.08; in data set [1] (pH 6, modulator: ogerin) it was -0.636; in data set [1] (pH 6.5, modulator: ogerin), -1.04. For the same variant, the surface expression score in data set [2] was -1.64.

For K136L, the cAMP reporter score in data set [1] (pH 5.5) was -1.95; in data set [1] (pH 6) it was -0.872; in data set [1] (pH 6, modulator: ogerin), -2.09. In data set [2], the surface expression score was -2.76.

Consider K136G, for which the cAMP reporter score was -0.164 in data set [1] (pH 5.5); -0.552 in data set [1] (pH 6); -0.156 in data set [1] (pH 6, modulator: ogerin); -0.945 in data set [1] (pH 6.5, modulator: ogerin). Further, the surface expression score in data set [2] is -0.715.

Take K136C: the cAMP reporter score in data set [1] (pH 5.5) is -0.431; in data set [1] (pH 6, modulator: ogerin) it was -0.652; in data set [1] (pH 6.5, modulator: ogerin), -0.395.

K136V: the cAMP reporter score is -0.404 in data set [1] (pH 5.5); -1.12 in data set [1] (pH 6); -1.27 in data set [1] (pH 6, modulator: ogerin); -1.03 in data set [1] (pH 6.5, modulator: ogerin). The surface expression score in data set [2] is -2.78.

In the case of K136F, the cAMP reporter score is -1.2 in data set [1] (pH 5.5); -1.63 in data set [1] (pH 6); -0.811 in data set [1] (pH 6, modulator: ogerin); -0.468 in data set [1] (pH 6.5, modulator: ogerin). The surface expression score in data set [2] is -2.24.

Regarding K136I, the cAMP reporter score in data set [1] (pH 5.5) was 0.258; in data set [1] (pH 6.5, modulator: ogerin), -1.75. Moreover, in data set [2], the surface expression score was -2.11.

With K136H, the cAMP reporter score in data set [1] (pH 5.5) is -0.408; in data set [1] (pH 6, modulator: ogerin), -0.688; in data set [1] (pH 6.5, modulator: ogerin), -1.24.
